The results in this text go back to article PMC10726135.

Some of the results follow. At the low end of the ranking the order means little. Measured with an extract: partners may take part in the binding.

This experiment addresses T1, HNF4alpha2 (COS-7 nuclear extract) (UniProt P41235).
T1 sequence: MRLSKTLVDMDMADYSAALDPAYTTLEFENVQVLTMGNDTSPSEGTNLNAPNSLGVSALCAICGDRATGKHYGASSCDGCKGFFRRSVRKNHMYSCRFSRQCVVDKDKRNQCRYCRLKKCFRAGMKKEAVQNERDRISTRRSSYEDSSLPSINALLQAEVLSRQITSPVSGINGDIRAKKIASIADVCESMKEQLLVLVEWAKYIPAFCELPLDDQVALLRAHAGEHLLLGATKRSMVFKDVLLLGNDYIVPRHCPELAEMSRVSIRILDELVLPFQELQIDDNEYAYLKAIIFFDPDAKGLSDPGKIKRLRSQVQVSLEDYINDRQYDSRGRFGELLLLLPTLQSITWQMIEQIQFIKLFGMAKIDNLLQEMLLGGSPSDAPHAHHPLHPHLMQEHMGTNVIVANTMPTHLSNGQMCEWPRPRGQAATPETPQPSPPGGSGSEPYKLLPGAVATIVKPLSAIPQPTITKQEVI
Description: protein-binding microarray. The following applies: COS-7 nuclear extract on double-stranded Agilent 4x180k PBM; binding buffer, salt, pH and temperature not given; high values mean tight binding; double strand, one strand shown; sequences stand for … in …GCCTAGGGAGATTAGAGTATCGGTCGA
As for AGATAGCTGTTAAATGGAGTGGAATTTGGA, the binding signal (log2 normalized intensity) is 2.77.

Turning to GGTATGTTAGATTAGTGTGCAGCTTTGTGT, the binding signal (log2 normalized intensity) was 2.1.

For AGGAATATTAGTTTAACTCCTAGGTAATTT, the binding signal (log2 normalized intensity) is -0.854.

On to TTAAGCAGATGTTTCTGCAAGCACACTGTC, for which the binding signal (log2 normalized intensity) was -1.16.

Take TCTACACTGCTTACCCTGCAGTGTGACCTT: the binding signal (log2 normalized intensity) stood at 4.19.

Take CTGGTCGACCTCCCCGTCACCCTCCCCGCC: the binding signal (log2 normalized intensity) is 6.

For TTGACCACCTACTGTTTGTGCAGAGGAGAT, the binding signal (log2 normalized intensity) is -0.991.

Consider CAAGAGGCTTCTTATCAGCAGCTGGGGTGA, for which the binding signal (log2 normalized intensity) is 0.844.

Turning to GATAAGGATGGATCAAAGGAAACTGCTTGG, the binding signal (log2 normalized intensity) was -0.885.

Turning to GGCTCAGGTAAAGGCATGCTTGGCATCCCT, the binding signal (log2 normalized intensity) is -0.899.

On to GGCCAAATCAGAACTGAGTTACTTGTGCTA, for which the binding signal (log2 normalized intensity) is -1.04.

In the case of AAACCATCCCAGGCATCCAGGCCAGTGGGG, the binding signal (log2 normalized intensity) is -1.07.

Regarding CTCCCCCTCCTGCCCTATGTCCTCCAGCTC, the binding signal (log2 normalized intensity) was determined as 3.62.

For TGCTGGGGGCTGGGCCCCACAGTGCATCTG, the binding signal (log2 normalized intensity) is -1.04.

Take TGTGTTGCACTGTTTGCATAAAGTTAAACT: the binding signal (log2 normalized intensity) came to 0.214.

Regarding CATCACACTCCTACCCATTCTTCAGAGGCA, the binding signal (log2 normalized intensity) is -1.1.

As to CTTAAGTCTGAATTCTAGTCCTATCACTGT, the binding signal (log2 normalized intensity) is 0.367.

Take TAGTACTCTGCCATGTGCTATTCTGTCTCC: the binding signal (log2 normalized intensity) amounted to 1.22.

TCCATTCTCACTGACTCACGGCAGCTTGTA: the binding signal (log2 normalized intensity) is -0.764.

Consider ACCTCCACCAGATAGCAAGGAGACATCGCT, for which the binding signal (log2 normalized intensity) was -1.23.

As for CAAGAATTGGAACCCTGCTGTCCATAGACA, the binding signal (log2 normalized intensity) is -1.17.

In the case of AGATGCCAGGAGAGCCGAAGCAGTCAAATG, the binding signal (log2 normalized intensity) is -1.21.

On to TGACCCTTGCACTGTAAGATCAAGATTAAG, for which the binding signal (log2 normalized intensity) amounted to 2.81.

For the sequence AAGAAAAAACAAAAAGATGGTCTTACAACA, the binding signal (log2 normalized intensity) is -0.887.

With ACCGAGCAGCTCTTTACAAAGCCCATGCTG, the binding signal (log2 normalized intensity) was -1.21.

With TGGACCATTGCTGACCTTGCCTCTGTGCTC, the binding signal (log2 normalized intensity) came out at 1.75.

Regarding GGAAGTCCAGCATTCTTTTCCCCATACCAG, the binding signal (log2 normalized intensity) was 1.33.

As to TTTCTTTGTACTGCTTCCAAAACATTGTAG, the binding signal (log2 normalized intensity) was 0.777.

GAGGCTGAAGTGAAGTTACAAAGGTCACAC: the binding signal (log2 normalized intensity) was 5.43.

Consider CTCTCCACCCCCATGCAAGTTCCCACAGAG, for which the binding signal (log2 normalized intensity) worked out at 4.51.

Regarding CCTGATAATGACTCTTGAACCACAGTCCCC, the binding signal (log2 normalized intensity) is 1.03.

Turning to ACAGTAACCCTTGAGCTCTGCACAGCACAA, the binding signal (log2 normalized intensity) is -1.04.

As to AGATCAGATGGGGTGAACTTTGGACCACAT, the binding signal (log2 normalized intensity) worked out at 7.41.

Take GAGGGGTCTGAGCACATCACACAGGCATAT: the binding signal (log2 normalized intensity) is -1.11.

Regarding GCACCAGAGCAGGACTGATATCCTGGGCTT, the binding signal (log2 normalized intensity) is -1.06.

Turning to AGGTGGAGACCTCTGCAGGAGGACTGGATC, the binding signal (log2 normalized intensity) is -1.18.

As for CAACTATAGAAAGCCTTTGAACTGTGTTGC, the binding signal (log2 normalized intensity) was determined as 1.75.

In the case of TTGCTGGTCAAGCTAAGCACAACTGATTCT, the binding signal (log2 normalized intensity) is -1.01.

For ATTCACATCTCCAGTTCCAAAGTCCAGGTG, the binding signal (log2 normalized intensity) is 5.67.

On to CCTGTTTACAATGGAAAGATTAGGTCAAAG, for which the binding signal (log2 normalized intensity) came to 1.05.

For AGCCTGAGGCAGTTGGAAAATATTTCTCTG, the binding signal (log2 normalized intensity) is -1.14.

TTCAGCTAGCTGAGTGAGTAGGTTCTCAGC: the binding signal (log2 normalized intensity) is -1.1.

In the case of CCCCCACCACAAAGCAGTGAGTGAAACATC, the binding signal (log2 normalized intensity) stood at 2.35.

With AGGAACCTGTTTTACAGGACATAGTCCTCT, the binding signal (log2 normalized intensity) amounted to 0.24.

As for GGGGCCACCTTTTCAGCTTCCTCCTGCGTC, the binding signal (log2 normalized intensity) was -1.1.

As for GCCCCCAGCCAGGCCCCAGGCCAACCGGTT, the binding signal (log2 normalized intensity) turned out to be 4.96.

For GCCTGTGACAAAGTCCATCTGGGCAAGGTG, the binding signal (log2 normalized intensity) was found to be 3.4.

Take ACCTTCCATTACCACATTCTCACCACTAGG: the binding signal (log2 normalized intensity) is -1.06.

In the case of AAACATAGAAAGGAGTACACACCATAAGAG, the binding signal (log2 normalized intensity) is -1.08.

Take CAGGGTCCAACCCACAGGGGTAGAAGCTGA: the binding signal (log2 normalized intensity) was -1.02.

On to CTGAGGAAAGGAAGATGCACATTCCCTCCA, for which the binding signal (log2 normalized intensity) was -1.13.

With ATTTATTAACTGGAGATAACACAACCCCTA, the binding signal (log2 normalized intensity) stood at 2.45.

As for TACCCTGAGGGACTCACTATCTTGAGGCTG, the binding signal (log2 normalized intensity) was -1.09.

GTAACAGTTGCAGCTTCAGGAGCTGCAGGG: the binding signal (log2 normalized intensity) is -0.981.

For AAAAGTCTACCTTTGGCCTGGGGATTTACT, the binding signal (log2 normalized intensity) was 0.82.

For GAATGCGCTTTCATGAGATGAAAGCTTCTG, the binding signal (log2 normalized intensity) is -1.15.

On to GTCCTTCCCCCGCCAGATGTTTTTACCCTG, for which the binding signal (log2 normalized intensity) is 2.69.

For the sequence TGCCTTATCTGGTTCAAAGGTCATTTCTGC, the binding signal (log2 normalized intensity) came to 6.58.

With ATAAAAGAGAAGATAATGGATTGGGGGCCA, the binding signal (log2 normalized intensity) was -1.19.

Consider GCAAACCTCCCCAGCCCAGGTGGCTGCATC, for which the binding signal (log2 normalized intensity) was -0.00436.

On to GAAGTGGGGTAAGCAAGGCTCTTAGCAGAA, for which the binding signal (log2 normalized intensity) is -1.18.

Consider AGATCTCAAAGTCCAAATAGCGCTAACTCT, for which the binding signal (log2 normalized intensity) stood at 2.59.

Consider GACATGTTTCTAACTGCCCGCATTCTGTTC, for which the binding signal (log2 normalized intensity) turned out to be 1.58.

Consider TAAGGAGCTGAGTCATAGTGGACTTTGCCT, for which the binding signal (log2 normalized intensity) was 6.9.

Consider AGCTGCAAAGGCACAGATCATATGGCCCAC, for which the binding signal (log2 normalized intensity) was -1.17.

Take TAATCTCAAAGTGTCAGTCCAGAGTTTGTG: the binding signal (log2 normalized intensity) was found to be 1.74.

CATGCACCTGCGGATAATCAAAGGTTGGTC: the binding signal (log2 normalized intensity) came to 1.73.

Turning to TTCAAAGGCTCCCCTAATCCCTGTGACATT, the binding signal (log2 normalized intensity) stood at 2.22.

With CTAAAGGCTGTGTCGGTATAAGTTCTACAT, the binding signal (log2 normalized intensity) is 0.443.

Regarding AAGGCAGGAGAATCGCTTGAACCCAGGGGA, the binding signal (log2 normalized intensity) is -0.996.

As to GGGCTCTCAGAATCTGCCGATCACTGGCCC, the binding signal (log2 normalized intensity) is -1.04.

On to TCTGTCCTTTGTCCCACATCTGTGAAGATA, for which the binding signal (log2 normalized intensity) amounted to 1.6.
